Over roughly 33,000 sequences, “E-score (-0.5 to 0.5)” has its median near -0.021; the highest 2% begin near 0.32. Some of the results follow.
What follows are sequences tested against T1, Zap1 (UniProt P47043) (assay: PBM E-score (8-mer binding enrichment) (E-score (-0.5 to 0.5)); higher = stronger / more preferred TF binding; most listed sequences are background and not binding sites). Settings: protein concentration: 200 nM; construct: GST-full length.
T1 sequence: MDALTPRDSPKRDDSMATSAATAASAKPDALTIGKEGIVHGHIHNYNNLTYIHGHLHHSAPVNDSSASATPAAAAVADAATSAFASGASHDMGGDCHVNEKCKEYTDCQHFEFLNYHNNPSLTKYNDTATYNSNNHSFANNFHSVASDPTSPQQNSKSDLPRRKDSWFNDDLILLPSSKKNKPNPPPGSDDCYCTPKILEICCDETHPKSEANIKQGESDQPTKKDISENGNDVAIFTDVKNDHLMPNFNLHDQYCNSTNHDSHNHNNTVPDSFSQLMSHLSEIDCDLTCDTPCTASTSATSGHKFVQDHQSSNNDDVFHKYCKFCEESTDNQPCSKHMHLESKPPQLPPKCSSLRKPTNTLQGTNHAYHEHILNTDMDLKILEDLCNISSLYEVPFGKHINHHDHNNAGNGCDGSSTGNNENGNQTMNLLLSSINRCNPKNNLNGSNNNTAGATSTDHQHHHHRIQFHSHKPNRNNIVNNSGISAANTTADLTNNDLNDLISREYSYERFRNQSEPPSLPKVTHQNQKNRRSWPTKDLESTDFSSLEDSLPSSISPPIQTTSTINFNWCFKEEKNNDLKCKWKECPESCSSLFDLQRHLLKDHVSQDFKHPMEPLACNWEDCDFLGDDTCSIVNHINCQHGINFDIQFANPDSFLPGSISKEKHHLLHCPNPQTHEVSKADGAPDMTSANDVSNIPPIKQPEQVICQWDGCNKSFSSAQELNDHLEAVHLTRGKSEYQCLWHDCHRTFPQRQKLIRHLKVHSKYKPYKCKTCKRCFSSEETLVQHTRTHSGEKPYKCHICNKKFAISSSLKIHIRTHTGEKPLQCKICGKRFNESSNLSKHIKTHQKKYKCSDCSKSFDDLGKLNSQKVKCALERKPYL
Procedure: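 Universal 'all 10-mer' protein binding microarrays (Agilent AMADID 015681) probed with GST-tagged S. cerevisiae TFs (full-length or DBD) made by in vitro transcription/translation (PURExpress), about 100-200 nM. Bound TF was detected with fluorescent anti-GST. Each ungapped 8-mer (which stands for itself and its reverse complement) is scored by the PBM enrichment score (E-score), a modified Wilcoxon-Mann-Whitney statistic from -0.5 to +0.5, computed with the Universal PBM Analysis Suite. Scale: above 0.35 generally sequence-specific binding.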

Sequence | PBM E-score
CCCGCGAA | 0.127
ATCGTAAG | -0.0162
CGTGCATC | -0.0375
AGTAAAAC | -0.0747
ACTGCCGC | 0.0637
GAAGATCC | -0.36
CAGCTAGA | -0.0537
AACGTTTG | -0.0264
CATAGAAC | -0.0409
GTGCTCTA | -0.0713
AGATAACA | 0.107
CCTGAGCG | -0.0277
TACGTCAA | -0.00419
AACCCAGA | 0.236
ATTCCTTA | 0.227
ACCATTAA | 0.348
AACTAATG | 0.218
AACGGTGT | -0.107
GCAGTGAA | -0.014
CAGTACTC | -0.164
CACACATA | -0.0854
CCGTGACC | 0.376
CTGTGCAA | -0.0488
CCCTAGTC | -0.194
AGGCTCTC | -0.349

Sequence | PBM E-score
CCACCGTA | 0.0878
CTGACGCA | -0.276
GAAGGCTC | -0.376
ATAAGAAC | 0.264
CACATGAA | 0.0532
CTAAGAAC | 0.118
TCTTCGAA | 0.00843
ATCAGCGG | -0.0232
AACTTATA | 0.134
ACGAGTAG | -0.0373
CAGCACGG | -0.0301
CTTCGACC | -0.00146
AATTTGCC | -0.0429
ATACCAAT | -0.0063
CAATGCCG | -0.261
GATTAGCC | -0.209
TATTCTCA | -0.0303
AAATACGG | 0.124
AACTTCGA | 0.0778
CTCAGATA | -0.0243
AGAACGTG | -0.00445
AATAACAT | 0.0801
CAGGCGCA | -0.226
CTTATTGC | 0.0266
AAGTATGT | -0.00136

Sequence | PBM E-score
TAGGCGGA | -0.137
TTGCGCAA | 0.0715
AGCAGTGC | -0.26
CAACCTTG | 0.332
CGGTGGGC | -0.00164
AATTTACT | 0.14
ACATCGAC | -0.182
TAGGGTCA | 0.408
CCCGGACG | -0.26
ATCACCAA | 0.0362
AGACCGCC | 0.0208
CCCAGAGG | 0.202
CGCATTTA | 0.0487
ATCCCACC | 0.156
TTCCGCAA | 0.192
AGGCGCAA | -0.124
ATCCGAAG | -0.0607
ATATCCCG | 0.132
CATAGTAC | -0.0152
GAACCCTC | 0.18
GGTTCCGA | 0.265
CTTGTAGA | -0.118
CGTCTATC | -0.231
CAGTTTCA | -0.12
CGAACTAG | 0.0259

Sequence | PBM E-score
GTACCCAC | 0.212
GTTTGCTA | 0.0208
CCACTATC | -0.0566
GTAACATA | 0.209
GTATGACA | -0.0285
ATGAGAGC | -0.104
CTTCCGCC | -0.108
ATCATTGA | 0.0965
TTAACGAA | 0.22
AGGCACGC | -0.236
GAACTTAA | 0.0397
AGCCTGTA | -0.0884
GCGTAAGA | -0.0758
AGACGTGC | -0.204
AACGGAGG | -0.279
AAAATCCA | 0.0613
AATAGGCG | -0.0939
GACTACCC | 0.301
CGCCTACC | -0.151
AACTCTGT | -0.0857
ACCATCAC | 0.153
GCGAACTA | -0.057
AGCATTGC | -0.145
ACGTTTCA | -0.0937
GGGTACAA | 0.345

Sequence | PBM E-score
CGGCAAAG | -0.158
CGACCGGC | 0.00958
GGTATCCA | 0.253
AAACATCT | -0.0428
ACATCCTG | 0.00886
AACTAGCA | -0.00179
GTTGGTCA | 0.24
AGTAATCG | -0.0726
AGACTGCT | -0.0613
AGATCTGC | -0.105
GCGTTCCC | -0.0434
GTCCTACA | 0.104
GGACGTTA | -0.0322
ACTTGATC | 0.0451
AGCATAAG | -0.0471
ATCACATC | -0.0715
AATCTGTA | -0.0544
CAACGGGG | 0.105
CCGTCAAG | 0.159
AACAATAA | 0.258
ATCACCAT | 0.196
CCCAAGGA | 0.00233
CTCGCCAC | -0.227
CATTTAAC | 0.248
GTATCGAC | 0.115

Sequence | PBM E-score
ATTCACCG | 0.00237
ACCGAATG | -0.0436
AACCATGT | 0.239
GCAACACA | -0.154
AAACGCCG | -0.159
AGTCTAAC | -0.0889
ACCTCTGA | 0.241
GAGAGGGC | -0.355
AACCTGGC | 0.0636
CAGTGAAG | -0.277
CGAGATGA | -0.0111
CCCCTGGC | -0.0954
ATCTTGGG | -0.107
GGTCACAA | 0.393
GTAGAGTA | 0.0367
GTCCCAAC | -0.0842
GACTAATC | -0.144
CAAGGTGC | -0.111
ACTAATTC | 0.122
AGCATTCA | -0.146
AAAGGCCC | 0.0508
GATGCATC | 0.0481
ATCCATAA | 0.25
ACGGTAAT | 0.139
AGTGATTC | -0.107

Sequence | PBM E-score
ACATCAGA | 0.0095
AACTCGGG | 0.0219
ACCCGCGA | 0.207
AGATGTCG | -0.028
CATGGTCG | -0.0819
GGCAACCC | 0.358
CCTAAGAC | -0.0667
AGGCGGCA | -0.241
CAACACTA | 0.115
AACACATT | 0.012
AGTTGTCG | -0.00588
ACTATGCT | 0.0185
GAAATGGA | -0.196
TCGCGCAA | 0.0975
ACAAGGCG | -0.128
TTAAATAA | 0.177
CAGGAATG | -0.148
CGTGGAGC | -0.138
ATCCGTAA | 0.0475
GAGCAGAA | -0.116
CGCGCCTA | 0.0177
GGATAGGA | -0.141

— the supplement of paper PMC3334620
